Experimental data as given in publication PMC9911399, “Two distinct binding modes provide the RNA-binding protein RbFox with extraordinary sequence specificity”.
Where a chain is given by its changes, count along the chain named. The list shows a part of the results.

T1: RBFOX1 RRM RbFoxmut (Fox-RRM*) (Homo sapiens, UniProt Q9NWB1 109-208, R118D;E147R;N151S;E152T)
T1 sequence: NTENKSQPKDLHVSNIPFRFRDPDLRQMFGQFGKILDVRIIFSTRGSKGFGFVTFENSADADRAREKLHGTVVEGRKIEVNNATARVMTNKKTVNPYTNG

B1: GGGACUC (DNA:RNA)
RNA: GGGAGACCGGAAUUCAGAUUGUCCGGGACUCUUAAAUCCCGUCGUAGCCACCA
DNA 1: CAATCTGAATTCCGGTCTCCC
DNA 2: TGGTGGCTACGACGGGATT
B2: GACCUCG (DNA:RNA)
RNA: B1 RNA with G26A, G27C, A28C, C29U, U30C, C31G
DNA 1: CAATCTGAATTCCGGTCTCCC
DNA 2: TGGTGGCTACGACGGGATT
B3: UUCCGCA (DNA:RNA)
RNA: GGGAGACCGGAAUUCAGAUUGUCCUUCCGCAUUAAAUCCCGUCGUAGCCACCA
DNA 1: CAATCTGAATTCCGGTCTCCC
DNA 2: TGGTGGCTACGACGGGATT
B4: GGUUGCG (DNA:RNA)
RNA: B1 RNA with G27U, A28U, C29G, U30C, C31G
DNA 1: CAATCTGAATTCCGGTCTCCC
DNA 2: TGGTGGCTACGACGGGATT
B5: AUUUUGC (DNA:RNA)
RNA: B1 RNA with G25A, G26U, G27U, A28U, C29U, U30G
DNA 1: CAATCTGAATTCCGGTCTCCC
DNA 2: TGGTGGCTACGACGGGATT
B6: UGACUUC (DNA:RNA)
RNA: B1 RNA with G25U, G27A, A28C, C29U
DNA 1: CAATCTGAATTCCGGTCTCCC
DNA 2: TGGTGGCTACGACGGGATT
B7: UACAGAC (DNA:RNA)
RNA: B3 RNA with U26A, C28A, C30A, A31C
DNA 1: CAATCTGAATTCCGGTCTCCC
DNA 2: TGGTGGCTACGACGGGATT
B8: GUAUGAC (DNA:RNA)
RNA: B1 RNA with G26U, G27A, A28U, C29G, U30A
DNA 1: CAATCTGAATTCCGGTCTCCC
DNA 2: TGGTGGCTACGACGGGATT
B9: CGCCAAG (DNA:RNA)
RNA: B3 RNA with U25C, U26G, G29A, C30A, A31G
DNA 1: CAATCTGAATTCCGGTCTCCC
DNA 2: TGGTGGCTACGACGGGATT
B10: CGCGCCC (DNA:RNA)
RNA: B1 RNA with G25C, G27C, A28G, U30C
DNA 1: CAATCTGAATTCCGGTCTCCC
DNA 2: TGGTGGCTACGACGGGATT
B11: AGAAGGA (DNA:RNA)
RNA: B1 RNA with G25A, G27A, C29G, U30G, C31A
DNA 1: CAATCTGAATTCCGGTCTCCC
DNA 2: TGGTGGCTACGACGGGATT
B12: GCUGAGU (DNA:RNA)
RNA: B1 RNA with G26C, G27U, A28G, C29A, U30G, C31U
DNA 1: CAATCTGAATTCCGGTCTCCC
DNA 2: TGGTGGCTACGACGGGATT
B13: GCAUUUU (DNA:RNA)
RNA: B1 RNA with G26C, G27A, A28U, C29U, C31U
DNA 1: CAATCTGAATTCCGGTCTCCC
DNA 2: TGGTGGCTACGACGGGATT
B14: AUAGCAG (DNA:RNA)
RNA: B1 RNA with G25A, G26U, G27A, A28G, U30A, C31G
DNA 1: CAATCTGAATTCCGGTCTCCC
DNA 2: TGGTGGCTACGACGGGATT
B15: ACAUACC (DNA:RNA)
RNA: B1 RNA with G25A, G26C, G27A, A28U, C29A, U30C
DNA 1: CAATCTGAATTCCGGTCTCCC
DNA 2: TGGTGGCTACGACGGGATT
B16: CCUAAGU (DNA:RNA)
RNA: B1 RNA with G25C, G26C, G27U, C29A, U30G, C31U
DNA 1: CAATCTGAATTCCGGTCTCCC
DNA 2: TGGTGGCTACGACGGGATT
B17: GACAUGA (DNA:RNA)
RNA: B1 RNA with G26A, G27C, C29U, U30G, C31A
DNA 1: CAATCTGAATTCCGGTCTCCC
DNA 2: TGGTGGCTACGACGGGATT
B18: AGGGCAU (DNA:RNA)
RNA: B1 RNA with G25A, A28G, U30A, C31U
DNA 1: CAATCTGAATTCCGGTCTCCC
DNA 2: TGGTGGCTACGACGGGATT
B19: CCCAAUA (DNA:RNA)
RNA: B1 RNA with G25C, G26C, G27C, C29A, C31A
DNA 1: CAATCTGAATTCCGGTCTCCC
DNA 2: TGGTGGCTACGACGGGATT
B20: UGCUUUU (DNA:RNA)
RNA: B1 RNA with G25U, G27C, A28U, C29U, C31U
DNA 1: CAATCTGAATTCCGGTCTCCC
DNA 2: TGGTGGCTACGACGGGATT

molecular target: T1, RBFOX1 RRM RbFoxmut (Fox-RRM*); assay: EMSA; HiTS-Eq, 1 nM pool, 10 min; buffer printed only for the single-RNA assays: 10 mM Tris pH 7.5, 150 mM NaCl, 3.4 mM EDTA, 0.001% NP-40, 30 C; details: tags: His6 N-terminal (pET28a); label: 5' 32P
Summary of the method: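 A pool of RNA with 7 randomized nucleotides, 5′-radiolabelled and with DNA-annealed flanks, was equilibrated at 1 nM for 10 min in 50 µL with purified RbFox RRM, wild type or mutant, across increasing protein concentrations. Free RNA was separated by 8% native PAGE, excised, reverse-transcribed, barcoded by PCR and sequenced. Relative association constants were obtained from read-count changes of each RNA species versus the control reaction and normalised to the cognate motif.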

Question: With B1 as the binder, how does the binding signal read?
Answer: 0.111 KA relative to UGCAUGU

Question: For B2, which binding signal is on record?
Answer: 0.101 KA relative to UGCAUGU

Question: How did the binding signal turn out when B3 was run?
Answer: 0.1 KA relative to UGCAUGU

Question: With B4 as the binder, how does the binding signal read?
Answer: 0.178 KA relative to UGCAUGU

Question: Which binding signal does the source give for B5 here?
Answer: 0.119 KA relative to UGCAUGU

Question: Which binding signal does the source give for B6 here?
Answer: 0.0822 KA relative to UGCAUGU

Question: For B7, which binding signal is on record?
Answer: 0.0549 KA relative to UGCAUGU

Question: Which binding signal does the source give for B8 here?
Answer: 0.219 KA relative to UGCAUGU

Question: How did the binding signal turn out when B9 was run?
Answer: 0.0888 KA relative to UGCAUGU

Question: For B10, which binding signal is on record?
Answer: 0.072 KA relative to UGCAUGU

Question: B11 was tested. Which binding signal did it give?
Answer: 0.0704 KA relative to UGCAUGU

Question: For B12, which binding signal is on record?
Answer: 0.123 KA relative to UGCAUGU

Question: Which binding signal does the source give for B13 here?
Answer: 0.113 KA relative to UGCAUGU

Question: With B14 as the binder, how does the binding signal read?
Answer: 0.103 KA relative to UGCAUGU

Question: With B15 as the binder, how does the binding signal read?
Answer: 0.0988 KA relative to UGCAUGU

Question: For B16, which binding signal is on record?
Answer: 0.104 KA relative to UGCAUGU

Question: With B17 as the binder, how does the binding signal read?
Answer: 0.0981 KA relative to UGCAUGU

Question: With B18 as the binder, how does the binding signal read?
Answer: 0.088 KA relative to UGCAUGU

Question: For B19, which binding signal is on record?
Answer: 0.105 KA relative to UGCAUGU

Question: For B20, which binding signal is on record?
Answer: 0.0948 KA relative to UGCAUGU
